Laboratory results taken from PubChem BioAssay AID485364 (National Center for Advancing Translational Sciences (NCATS), 2010).
The campaign covered roughly 360,000 compounds. About 11,000 (3.1%) were called active. This list was built around the results that the source calls inconclusive (neither active nor inactive); the mix of calls is not that of the screen. The call rests on the fitted dose curve; in most records, active means well fitted inhibition curve with a large enough effect; inconclusive means small, poorly fitted or top-dose-only effect; inactive means no such curve, though single readings can be large or run the other way. Potencies of inconclusive entries are left out as doubtful fits.

molecular target: Schistosoma mansoni thioredoxin glutathione reductase (TGR) (UniProt Q962Y6); assay: qHTS Assay for the Inhibitors of Schistosoma Mansoni Peroxiredoxins; conditions: purified TGR, DTNB reduction, TNB absorbance 405 nm; series mostly up to 114 µM; further: nearly all actives have a fitted effect of over 60% in size
Description: Schistosomiasis is a major neglected tropical disease that currently affects over 200 million. It is caused by different species of flatworms, such as Schistosoma mansoni. Over the last century, drugs to treat the disease have evolved from potassium antimonyl tartrate, artemisinin, oxamniquine, to praziquantel, with praziquantel remaining the universally-used single drug of choice over the past three decades. However, transmission rates have changed little with praziquantel, and there is evidence for the development of drug resistant parasites. Because there is currently no suitable alternative therapy available, there is an urgent need to identify new targets and drugs for schistosomiasis treatment. Thioredoxin glutathione reductase (TGR), one uniquely positioned S. mansoni enzyme, has been identified as a major component of the worms' distinct and compressed antioxidant "firewall". TGR is a multifunctional enzyme that catalyzes the interconversion between reduced and oxidized forms of both glutathione (GSH) and thioredoxins, thus making it an attractive new antiparasitic target. Recently, a quantitative high-throughput screen of the NIH Molecular Libraries Small Molecule Repository (MLSMR, ~71K at the time of the screen in 2007) was performed using an assay that targeted both TGR and peroxiredoxin2 (Prx2, an H2O2-reducing enzymatic component of the S. mansoni redox "firewall") by following the decrease of NADPH fluorescence. […] Additional mechanistic link between exogenous NO donation and parasitic injury for the oxadiazole-2-oxide class of compounds was also expanded and better defined. Although the screen addressed both TGR and Prx2, the assay required post-screen target deconvolution for further characterization of the actives. In addition, the fluorescence assay was also subject to fluorescence interference from compound library members. We have developed a 1536-well-based kinetic HTS assay to address TGR alone. The assay followed the reduction of 5, 5'-dithiobis (2-nitrobenzoic acid) (DTNB) (Ellman's reagent) by NADPH and measured the increase in absorbance at 412 nm of the reaction product, TNB. […] This assay format can be used to screen the current MLSMR collection (with >300K compounds available) to find novel TGR inhibitors. Furoxan is a good choice to serve as a positive control in the primary HTS assay.
Three microliters of reagents (100 uM NADPH and 20 nM TGR or 100 uM NADPH as no-enzyme control) were dispensed into 1,536-well black clear-bottomed plates. Compounds (23 nL) were transferred via Kalypsys pin tool equipped with 1536-pin array (10 nL slotted pins, V&P Scientific, San Diego, CA). The plates were then be incubated for 15 min at room temperature, and 1 uL aliquot of 500 uM NADPH were added, immediately followed by a 1 uL aliquot of 15 mM DTNB to start the reaction. The plate was transferred to a ViewLux high-throughput CCD imager (Perkin-Elmer, Wellesley, MA) where kinetic measurements of the TNB absorbance were acquired using a 405 excitation filter. Throughout the screen, reagent bottles and all liquid lines were made light-tight to minimize reagent degradation. All screening operations were performed on a fully integrated robotic system (Kalypsys, San Diego, CA) containing one RX-130 and two RX-90 anthropomorphic robotic arms (Staubli, Duncan, SC). Library plates were screened starting from the lowest and proceeding to the highest concentration, and a "double-dipping" step of the highest concentration was required to access higher concentrations of compounds. Vehicle-only plates, with DMSO being pin-transferred to the entire column 5-48 compound area, were inserted uniformly at the beginning and the end of each library in order to monitor for and record any shifts in the background, which can be affected by reagent dispensers or loss in enzyme activity overtime. […]
Potency means the concentration at half of the fitted maximal effect; tags describe the fitted curve by direction and shape.

Structure (SMILES)	Potency
O=C(NCc1cccnc1)c1ccc(NS(=O)(=O)c2ccc(F)cc2)cc1	inactive
COc1ccc2c(c1)C(=O)c1ccccc1CO2	inconclusive [inhibitor, partial curve]
COc1ccc(-c2sc3cc(OC)c(OC)cc3c2C#CC2(O)CCCCC2)cc1	active: 8.91 µM
Cc1ccc(C)n1-c1ccc(C(=O)Nc2ccccc2F)cc1	active: 50.1 µM
COc1ccc(NC(=O)/C=C/c2ccccc2)c([N+](=O)[O-])c1	inactive
CCOC(=O)C1(CC2CCCCO2)CCN(C(=O)Nc2ccccc2)CC1 (centres undefined)	inactive
COc1ccc(C(C)=O)cc1COC(=O)c1cc(C)oc1C	inconclusive [inhibitor, full curve]
C#CCOc1ccc(Cl)cc1/C=C1/C(=O)ON=C1C	inconclusive [inhibitor, single point]
O=C(O)CC1(CC(=O)NCc2ccccn2)CCCCC1	inactive
Cc1ccc(C(=O)NC2CCCc3ccccc32)o1 (centres undefined)	inconclusive [inhibitor, partial curve]
CCNC(=S)Nc1ccc2cn[nH]c2c1	inactive
Clc1cccc(-c2nc3nc4ccccc4nc3n2Cc2ccco2)c1	active: 17.8 µM
CCOc1ccc2noc3c2c1C(=O)c1ccccc1-3	inconclusive [inhibitor, partial curve]
CCC(C)NC(=O)Cn1c(=O)n(-c2ccc(OC)c(OC)c2)c(=O)c2ccccc21 (centres undefined)	inactive
COc1ccc2[nH]c(=O)c(CN(C(=O)c3ccccn3)C3CCCCC3)cc2c1	inconclusive [inhibitor, single point]
O=C(NC1CC1)C1CCN(C2CCN(C(=O)Cc3ccc4c(c3)OCO4)CC2)CC1	inconclusive [inhibitor, partial curve]
COc1cccc(CNC(=O)c2cc3c(=O)n(Cc4cccnc4)ccc3nc2C)c1	inactive
CN1C(C(=O)NCc2ccco2)CC2Cn3c(nc4ccccc43)C21 (centres undefined)	inconclusive [inhibitor, partial curve]
O=C(Nc1nc(-c2ccco2)c(-c2ccco2)s1)C1CCC1	inconclusive [inhibitor, partial curve]
CN(C)C(CNS(=O)(=O)c1ccc(Br)cc1)c1cccnc1 (centres undefined)	inconclusive [inhibitor, partial curve]
O=C(/C=C/c1ccncc1)c1ccc2c(c1)OCCO2	active: 44.7 µM
COc1cccc(-c2oc3ccc(C)cc3c(=O)c2O)c1	inactive
COc1ccc(S(=O)(=O)Cc2ccc(C(=O)NCc3ccc(F)cc3)o2)cc1	inconclusive [inhibitor, partial curve]
Cc1ccc(NC(=O)COC(=O)c2ccc([N+](=O)[O-])o2)cc1S(=O)(=O)N1CCCCC1	inconclusive [inhibitor, full curve]
CC(Sc1nnc(-c2cccs2)n1-c1ccccc1)C(=O)NCc1ccco1 (centres undefined)	active: 44.7 µM

Structure (SMILES)	Potency
COc1ccc(C(=O)c2c3ccc([N+](=O)[O-])cc3[n+]([O-])n2CCCN)cc1	active: 25.1 µM
Cc1ccc(NC(=S)Nc2ccccn2)c(C)c1	inconclusive [inhibitor, partial curve]
Cc1[nH]c2ccccc2c1C1(O)C(=O)N(C(C)C)c2ccccc21 (centres undefined)	inconclusive [inhibitor, full curve, poor fit]
COc1ccccc1C(CNC(=O)C(C)(C)Oc1ccc(Cl)cc1)N1CCCC1 (centres undefined)	inactive
Clc1ccc(CN2CCSCC2)c(Cl)c1	inconclusive [inhibitor, full curve]
O=C1OCCN1CCNCc1cn(-c2ccc(F)cc2)nc1-c1ccccc1Cl	inconclusive [inhibitor, full curve, poor fit]
Cc1cccc(CSCc2ccc(C(=O)NC(C)C)o2)c1	inconclusive [inhibitor, partial curve]
N/C(=N\OC(=O)C1CCCCC1)c1ccc(Cl)cc1	inconclusive [inhibitor, partial curve, poor fit]
CC(Cc1ccco1)NC(=O)c1ccc(C(F)(F)F)cc1 (centres undefined)	inactive
CCN(CC)CCN1C(=O)C(=O)/C(=C(/O)c2cnn(-c3ccccc3)c2C)C1c1cccs1 (centres undefined)	inconclusive [inhibitor, partial curve]
CCCN1C(=O)C2C(C(=O)Nc3cccc(OC)c3)C3C=CC2(O3)C1C(=O)NC1CCCCC1 (centres undefined)	inconclusive [inhibitor, partial curve, poor fit]
O=C(/C=N/O)NCCCN1CCOCC1	inactive
CC(=O)c1ccc(NC(=O)C[n+]2ccccc2)cc1	inactive
O=C(Nc1cc(C(F)(F)F)ccc1Cl)c1cnn(-c2ccccc2)c1-n1cccc1	inactive
Clc1nc(CN2CCCCC2)nc2sc3c(c12)CCC3	active: 22.4 µM
O=[N+]([O-])c1ccc(COc2cccc(CNc3ccc(Br)cc3)c2)cc1	inactive
COc1ccc2c3c(c(=O)oc2c1)C1O[C@](CCCCN2C(=O)c4ccccc4C2=O)(Cc2cc(OC)c(OC)cc21)O3	inconclusive [inhibitor, partial curve]
O=C(O)CSC1CC(=O)N(c2cccc(Cl)c2)C1=O (centres undefined)	inconclusive [inhibitor, single point]
CN1CCN(C2=C(Cl)C(=O)N(c3ccc(Cl)c(Cl)c3)C2=O)CC1	inconclusive [inhibitor, partial curve, poor fit]
O=C(Nc1ccccc1C(=O)OCC(=O)N1CCc2ccccc2C1)c1ccco1	inactive
O=C(N/N=C\c1ccc(Cl)s1)c1ccc(Cn2cccn2)o1	inactive
NC(N)=NN=C1CCCCCCCCCCC1	inactive
COC(=O)c1ccc(NC(=O)CN2C(=O)CNC2=O)cc1	inconclusive [inhibitor, partial curve]
CCN1CCN(c2nc(SC)nc3sc4c(c23)CC(C)(C)OC4)CC1	inactive
CC(=O)c1ccc([C@@H]2C[C@]34CN(Cc5cccc(C(F)(F)F)c5)S(=O)(=O)[C@H]3C[C@H]2O4)cc1	inconclusive [inhibitor, partial curve]

Structure (SMILES)	Potency
CC(=NCCN1CCN(C(C)=C2C(=O)c3ccccc3C2=O)CC1)C1=C(O)CC(C)(C)CC1=O	inconclusive [inhibitor, partial curve]
COC(=O)CCC/C=C1/SCC(NC(=O)c2ccccc2)C1=O (centres undefined)	inconclusive [inhibitor, partial curve, poor fit]
COc1ccc(S(=O)(=O)N2CCOCC2)cc1NC(=O)CSc1cccc[n+]1[O-]	inconclusive [inhibitor, partial curve]
C#CCOCCOCCOCCNc1nc(N2CCN(C(=O)[C@H](CCC(=O)O)n3cc(C(N)CO)nn3)CC2)nc(N2CCN(C(=O)[C@H](CCCCN)n3cc(C(N)[C@H](C)CC)nn3)CC2)n1 (some centres undefined)	inconclusive [inhibitor, partial curve]
COC(=O)C(C(=O)OC)=C(/C=C/C=C/N(C)C)N(C)C	inconclusive [inhibitor, partial curve]
CCCCCC(=O)NNC(=S)NC(=O)c1ccc([N+](=O)[O-])cc1	inconclusive [inhibitor, full curve]
O=C(/C=C/c1ccc(Cl)c([N+](=O)[O-])c1)c1cccnc1	inconclusive [inhibitor, full curve, poor fit]
COc1ccccc1NC(=O)CSc1nc(=O)n2cc(C)ccc2n1	inactive
Cc1[nH]c2ccccc2c1C(C#N)(C#N)C1C(=O)c2ccccc2C1=O	active: 44.7 µM
O=C(/C=C/Sc1ccc(C(F)(F)F)cn1)c1ccccc1	active: 89.1 µM
COc1ccc(C(=S)N(C)C)cc1OC	inactive
O=C(Oc1ccc2c(c1)OCO2)c1ccc(F)cc1Cl	inactive
COC(=O)CCCN1C(=O)c2cccc3cccc(c23)C1=O	inactive
CCOC(=O)CN=C1CC(C)(C)CC2=C1Sc1ncnc(N(C)C)c1N2	inconclusive [inhibitor, partial curve]
CCc1nnc(NS(=O)(=O)c2ccc(NCc3ccccc3O)cc2)s1	inactive
O=C(NC(=S)Nc1ccccc1C(=O)O)c1ccc(-c2ccc(Br)cc2)o1	active: 3.55 µM
O=C(Nc1nccs1)c1c(O)c2c(n(Cc3ccco3)c1=O)CCCC2	inconclusive [inhibitor, partial curve]
COc1ccc(N2CCN(c3nc(-c4cccs4)nc4ccccc34)CC2)cc1	inactive
CCOC(=O)c1c(N2C(=O)C=CC2=O)sc(C)c1C	active: 0.447 µM
Cc1ccc2c(c1)[C@@H]1CN(C)CC[C@@H]1N2S(=O)(=O)c1ccc(F)cc1	inconclusive [inhibitor, single point]
COc1cc(Cl)ccc1OCc1cc(C(=O)NCC(C)(C)N2CCOCC2)no1	inconclusive [inhibitor, single point]
O=C(NC(=S)Nc1ccc(N2CCCC2)cc1)c1ccc(F)cc1	inconclusive [inhibitor, full curve]
Cc1ccc(C2C3CN(C(C)C)CC=C3C(C#N)=C(N)C2(C#N)C#N)cc1 (centres undefined)	inconclusive [inhibitor, full curve]
Cc1cccc(C)c1OCC(=O)Nc1c(C(=O)c2ccc(Br)cc2)oc2ccccc12	inactive
